Several values for one entry are separate records, joined by “and”; a condition that tells them apart may be missing. Equal values may be shown once. Among all 48,000 compounds or so, about 1,200 (2.5%) were called active. Inconclusive results (about 2%) are left out.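 Rule for the calls: active = activation of at least 60% and not above a set upper limit (about 1 call in 100 departs from these limits); inconclusive = activation of 40% to 60%, or above that upper limit; inactive = activation under 40%.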 This is one part of the list.
Molecular target: Probable G-protein coupled receptor 32 (Homo sapiens) (UniProt O75388)
Chain of UniProt O75388 (O75388 whole entry, looked up): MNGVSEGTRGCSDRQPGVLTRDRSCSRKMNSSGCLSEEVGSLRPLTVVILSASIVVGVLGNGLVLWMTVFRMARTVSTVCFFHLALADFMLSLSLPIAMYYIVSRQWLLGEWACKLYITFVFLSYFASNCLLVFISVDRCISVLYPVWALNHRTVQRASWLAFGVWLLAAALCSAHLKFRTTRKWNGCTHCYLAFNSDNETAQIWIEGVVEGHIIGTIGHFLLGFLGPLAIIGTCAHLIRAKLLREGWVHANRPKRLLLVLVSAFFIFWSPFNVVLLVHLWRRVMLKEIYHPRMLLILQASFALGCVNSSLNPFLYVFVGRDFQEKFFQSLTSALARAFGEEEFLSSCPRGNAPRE
Assay: qHTS for Agonists of Human Resolvin D1 Receptor DRV1; note: 0% is about no effect
Settings: CHO-K1 GPR32 beta-arrestin PathHunter luminescence, 90 min; at 76.9 µM; hits give high values; zero percent set by DMSO-only wells
In short: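 Readings come from a cell-based beta-arrestin complementation format: CHO-K1 GPR32 stable cells (2,500/well) treated 90 min with compounds, then beta-Gal substrate added for 1 h before chemiluminescence imaging.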

activation, inactive:
COc1ccc(CNC(=O)c2ccc3nc(CCc4ccccc4)oc3c2)cc1 4.11%
COc1ccccc1CNC(=O)C(C)n1ccc2cc(S(=O)(=O)N3CCCC3)ccc21 (configuration not stated) -11.1%
Cc1cccc(N2CCN(C(=O)C3CCN(C(=O)c4cc5sccc5n4C)CC3)CC2)c1C 27%
Cc1ccc(C2Nc3cc(C)c(C)cc3-n3c(-c4ccccc4)c4c(=O)n(C)c(=O)n(C)c4c32)o1 (configuration not stated) -1.82%
Cc1ccc(-c2[nH]c3c(c2-c2c(-n4cccc4)n(C)c(=O)[nH]c2=O)c(=O)[nH]c(=O)n3C)cc1 -5.07%
CCOC(=O)c1c(C)oc2nc(C)nc(N3CCN(c4ccccc4F)CC3)c12 -6.71%
CCOc1ccc(NC(=O)C2CCN(c3nnc(C)c4c(C)n(-c5ccccc5)nc34)CC2)cc1 -9.44%
Cc1ccc(NC(=O)CSc2nc3c([nH]c4ccccc43)c(=O)n2-c2ccccc2)cc1Cl -26.8%
CC1Cn2c(C(=O)NCCc3ccc(Cl)cc3)cc3cccc(c32)S1 (configuration not stated) -22.3%
CCN(CC)CCNc1ccc(CO)c2sc3ccccc3c(=O)c12 18.4%
Cc1ccc(F)cc1NC(=O)CCc1c(C)nn(-c2ccc(N3CCOCC3)nn2)c1C 7.48%
Cc1ccc2[nH]cc(S(=O)(=O)c3ccc(C)c(C)c3)c(=O)c2c1 -1.34%
CSc1ccc(C2CC(=O)Oc3c2c(=O)n(C)c2ccccc32)cc1 (configuration not stated) -8.85%
COc1ccc(NC(=O)CCS(=O)(=O)c2nc(-c3ccc4c(c3)OCO4)cc(C(F)(F)F)n2)cc1 -24.5%
COc1ccc(C)cc1NC(=O)CCc1c(C)nn(-c2ccc(N3CCCCC3)nn2)c1C -3.62%
Cc1ccc(/C=C/c2onc(C)c2S(=O)(=O)N2CCC(C(=O)N3CCOc4ccc(C)cc43)CC2)cc1 -27.4%
Cc1c(C(=O)N2CCCC2)oc2c1-c1nn(CC(=O)NCc3ccccc3Br)cc1CC2 -1.24%
COc1ccc(-c2cc(C(=O)Oc3ccc(C)cc3)c3cc(C)ccc3n2)cc1 -21.6%
O=C(CN1C(=O)COc2ccc(S(=O)(=O)N3CCCCCC3)cc21)Nc1cccc(Cl)c1 -24.9%
CCOc1ccc2nc3cc(N)ccc3c(N)c2c1 44.3%
CC1CCN(c2nn3c(=O)c(C(=O)NCCc4ccccc4)cnc3s2)CC1 -1.76%
Cc1cc(=O)n(C(C)C(=O)N2CCCc3ccccc32)c2c1c(C)nn2-c1ccccc1 (configuration not stated) 3.35%
Cc1c(C(=O)NCc2ccccc2)sc2nc[nH]c(=O)c12 -11.4%
Cc1ccc(CCNc2nc3c(S(=O)(=O)c4ccccc4)nnn3c3ccsc23)cc1 -7.51%
COc1cc(-c2noc(-c3ccc(N(C)C)c([N+](=O)[O-])c3)n2)cc(OC)c1OC -1.25%
O=C(Nc1cc(-c2nc3ccccc3o2)ccc1Cl)c1ccc(Br)o1 -16.2%
CSc1ccc2c(c1)N(CCC1CCCCN1C)c1ccccc1S2 (configuration not stated) 32% and 3.95%
O=C(Cn1c(-c2cccs2)cc2cc(F)ccc21)N1CCN(c2cccc(Cl)c2)CC1 0.785%
COc1cccc(Cc2nc3ccccc3nc2SCC(=O)N2CCN(c3ccccc3)CC2)c1 -30.3%
Cc1ccccc1Cn1c2ccccc2c2cnn(CC(=O)NCCCc3ccccc3)c(=O)c21 29.3%
COc1cccc2c1cc1c(=O)n(CC(=O)O)nc(C)n12 -6.89%
CCOc1ccc(-c2c(C)nn3c(C)c(C(=O)NCCc4ccccc4)cnc23)cc1OCC 19.9%
COc1ccc2c(c1)c1c(c(=O)n(-c3ccc(F)c(Cl)c3)c(=O)n1CC(N)=O)n2C -12.3%
CC(=O)Nc1ccc(S(=O)(=O)NC2(C(F)(F)F)NC(=O)N(c3ccccc3F)C2=O)cc1 (configuration not stated) -7.56%
CCC1CN(C(=O)Nc2cccc(OC)c2)c2ccccc2O1 (configuration not stated) -30.7%
Cn1nc(C(=O)N2CCN(c3ccc(Cl)cc3)CC2)c2c1-c1ccccc1S(=O)(=O)C2 -4.91%
COc1ccccc1CNC(=O)CSc1cc(=O)n(C)c2ccccc12 7.21%
COc1ccc(-c2cc(C(F)(F)F)nc(NCc3ccc(Cl)cc3)n2)cc1 -7.88%
CCOc1ccc(Nc2sc(C(=O)c3ccc4c(c3)OCO4)c(N)c2S(=O)(=O)c2ccc(C)cc2)cc1 -5.84%
NC1C=CC=C(C(=O)O)C1 (configuration not stated) -0.509%
O=C1CC(c2nnc(Cc3cccc(Cl)c3)o2)CN1c1ccccc1 (configuration not stated) -4.86%
CCOc1ccc(C2C(C(=O)Nc3ccccc3OC)=C(C)Nc3c(C(=O)Nc4cccc(C)c4)cnn32)cc1 (configuration not stated) -13.6%
CC1CCCCN1S(=O)(=O)c1cc2c(=O)nc3ccccn3c2cc1Cl (configuration not stated) 17.4%
CC(C)(Sc1ccc(CCN(CCCCC2CCCCC2)C(=O)NC2CCCCC2)cc1)C(=O)O -6.14%
COc1cccc(-c2cc(C(=O)Nc3ccc(Br)c(C)c3)[nH]n2)c1 -1.83%
Cc1ccc2c(c1)cc1c(=O)n(Cc3ccc(Cl)cc3)nc(C)n12 -15.2%
COc1ccc(-n2c(=O)c3ccc(C(=O)NCc4ccc(C)cc4)cc3n(Cc3cccc(Cl)c3)c2=O)cc1 -1.91%
COc1ccc(CN(Cc2ccco2)C(=O)c2ccccc2F)cc1 -21%
CCn1c(CC2C(=O)Nc3ccccc32)nc2ccccc2c1=O (configuration not stated) -37.3%
Cc1cccc(C)c1NS(=O)(=O)c1ccc2c(c1)[C@H]1C=CC[C@H]1[C@@H](c1ccc(Cl)cc1)N2 -16.4%
CCOc1ccccc1NC(=O)Cn1c(=O)n(-c2ccccc2)c(=O)c2c1c1cc(C)ccc1n2C -2.74%
COc1ccc(NC(=O)CN2C(=O)CCc3cc(S(=O)(=O)N4CCOCC4)ccc32)c(OC)c1 -34.4%
COc1ccc(-c2cn3c(n2)sc2cc(C(=O)NCCCN4CCCCC4)ccc23)cc1 -9.13%
CCCS(=O)c1ccc2nc(NC(=O)OC)[nH]c2c1 (configuration not stated) -22.9%
CCN(C(=O)CSc1nnc(-c2cc3occc3n2C)n1-c1ccccc1C)c1cccc(C)c1 -15.8%
CCNC(=O)c1c(C)oc2ncn(C)c(=O)c12 -1.82%
CCN(CC)C(=O)c1cnn(-c2ccc(F)cc2)c1-n1cccc1 -1.81%
COc1ccc(N2CCN(C(=O)c3ccc4c(=O)n(CCc5ccc(OC)c(OC)c5)c(=O)[nH]c4c3)CC2)cc1 -2.68%
CCc1nn(CC(=O)N(CC)Cc2ccccc2)c(=O)c2cc3occc3n12 1.25%
Cc1nn(CCCC(=O)Nc2cc(C(F)(F)F)ccc2Cl)c(=O)c2c1sc1ccccc12 -4.19%
CC(=O)O[C@@H]1C(=O)O[C@@H]2[C@H]1OC(=O)[C@@H]2OC(C)=O -9.43%
Clc1ccc2nc(Nc3ccccc3Cl)nc(-c3ccccc3)c2c1 -9.83%
CCOc1ccc(-n2c(=O)c3c4c(sc3n(Cc3cccc(C)c3)c2=O)CCCC4)cc1 30.5%
CCc1ccc(NS(=O)(=O)c2ccc3[nH]cc(C(=O)NCc4ccc(C)cc4)c(=O)c3c2)cc1 16.2%
CCOCCCNC(=O)C1CCN(c2cc(C)nc3c(-c4ccc(Cl)cc4)c(C)nn23)CC1 -10.5%
CCc1ccc(NCc2cc3cc4c(cc3n(CC(=O)Nc3ccccc3Cl)c2=O)OCO4)cc1 -16.5%
Cc1ccc(-c2cn3c(n2)sc2cc(C(=O)NC4CCCc5ccccc54)ccc23)cc1 (configuration not stated) -7.78%
Cc1ccc(NC(=O)c2cc3c(-c4ccccc4)nn(-c4ccccc4)c3s2)cc1 -11.4%
O=C(Nc1ccc(Br)cc1F)C(NS(=O)(=O)c1cccc2nsnc12)c1ccccc1 (configuration not stated) -17.9%
CCOc1ccccc1NC(=O)Nc1cc(C(=O)NCc2ccc(C)cc2)ccc1N1CCCC1 -18.3%
COc1ccc(OC)c(NC(=O)c2c(NCc3ccc(OC)c(OC)c3)sc3c2CCC3)c1 -18.2%
CC1=C(/C=C/C(C)=C/C=C/C(C)=C\C(=O)O)C(C)(C)CCC1 -8.05%
CC/C(=C(/CC)c1ccc(O)cc1)c1ccc(O)cc1 37.3%
COc1ccc(CNC(=O)c2cc3c(-c4ccccc4F)nn(C)c3s2)cc1 -4.77%
COc1ccc(NC(=O)Cn2c(=O)n(CC(=O)NCCc3ccccc3)c(=O)c3ccccc32)cc1 -5.81%
COc1ccccc1NC(=O)CSc1cn(CC(=O)N2CCCC2)c2ccccc12 -16.6%
CC(=O)c1cccc(NC(=O)CCc2c(C)nc3nc(CN)nn3c2C)c1 -7.45%
CC(=O)N1CCc2c(sc3c2c(=O)n(-c2ccccc2Cl)c(=O)n3Cc2cccc(C)c2)C1 4.91%
CCOC(=O)N1CCN(Cc2nc3cc(NC(=O)c4ccccc4Cl)ccc3n2C(C)C)CC1 -6.3%
O=C(Cn1cc(S(=O)(=O)N2CCCC2)c(S(=O)(=O)N2CCCC2)c1)Nc1ccc(F)cc1 -11.6%
Cc1ccc2nc(-c3cccs3)c(Nc3ccc4c(c3)OCCO4)n2c1 -17.8%

activation, active:
CCc1ccc(CNC(=O)CSc2cc(=O)n(CC)c3ccccc23)cc1 60.5%
